Test results taken from the supplement of paper PMC11417369.
This is one part of the list.

Tested on: PfHDP1 homeodomain (GST-tagged)
Assay: gcPBM binding intensity (ln(normalized median fluorescence intensity)); higher = stronger DNA binding
Procedure, shortened: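 Probes on an Agilent 4 × 180k array were primer-extended, double-stranded and 36 bp long, taken from intergenic genomic regions, with negative controls added. GST-tagged P. falciparum DNA-binding domains from E. coli, about 25 μg on average, were applied to the array for 1 h in 1× PBS containing 1% milk, 0.2 mg/ml BSA, 0.5% salmon testes DNA and 0.03% Triton X-100. Binding intensity, obtained after Alexa488 anti-GST antibody detection and a 488 nm scan, is the highest Masliner-normalised natural-log median intensity across replicate spots of either probe orientation.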

Sequence	gcPBM binding intensity (ln)
ATAAGATTATACAATTGTACGTTGTTCAAGATAAGG [XGTACX_site191]	6.55
GTGTTTGAAAATAAAGCATGCAAATATATTTGAAAT [TGCATGCA_site386]	7.23
AAATATATTATATGTACACACAAAATTAAGGGATAT [CACACA_site1375]	7.36
ATATTTTTTAATTTTACACACCATATAAAATAATTC [CACACA_site7339]	6.62
ATCAATACTTTTTTGGGTACATAAATATATATATAT [XGTACX_site8436]	8.83
AACTAATTCATGTTATATTAGATAAAAAAAAAAAAA [TGCATGCA_negctrl_site340]	6.3
AAAAAAAATTAAATAAATAAATATACACATATATAT [GTGCAC_negctrl_site394]	6.43
CATTAAAATTGAGAGATGCACTTTTTAAGACCTTGT	6.93
TTTTTTTTTTTTTTTTTTTTACCCCTTTTTCAAAAA [CACACA_negctrl_site1524]	6.16
AAAACATTGTTTATGTGTACATAATTATATTTACAA [XGTACX_site6926]	6.63
ATATTATGAATTGTCACACATATATTTAAAAATGTA [CACACA_site4852]	6.34
TGCATATTACTTTTTCACATAAAAATGATCCGATTA [GTGCAC_negctrl_site526]	6.49
TAAATATGTGTATGTAGTACATAGTGTTTTTTTTTT [XGTACX_site3748]	6.43
AAAAAATGACTTAATATGAGCATATATTATGTTGTT [CACACA_negctrl_site1609]	7.63
AAAATATAAAAATGAAGTACAAAAAAAAAAAAAAAA [XGTACX_site8132]	6.07
GTTATACACATCAACACACACATACAACGTGGTGTA [CACACA_site6677]	7.04
TCTAACATATAATATTCACACACATATATATATTAT [CACACA_site8236]	6.78
TGGTTTCAATAATTAATAAAATATATTATTGTGAAA [CACACA_negctrl_site442]	5.93
ATAATATATTTATAATGTACAAACCATTTGTATTAA [XGTACX_site4370]	6.27
ATTATTATTATATTTTGTACATATGTAACAATATAT [XGTACX_site5780]	6.71
TATATATATATGTGCACACATATATAATATGTATAA [CACACA_site715]	10.1
AAATAACACATATATACACACATATAACTATAATAT [CACACA_site7298]	6.88
TATATAAAAATCAATTGTACTTTTTTTTTTTTTTTT [XGTACX_site7327]	6.07

Sequence	gcPBM binding intensity (ln)
TATATACAAAAATGCACACGAAAAGTAATATATATA [CACACA_site4173]	9.89
ATATATAAAATTATATGTACATATATAATATATATA [XGTACX_site529]	6.84
TAGAACAAATAAAACACACACATATATATATATATG [CACACA_site2768]	7.01
TTTATTTTTTAATGTTGTACAATGTTGTTTAATCAA [XGTACX_site6489]	6.48
CATAGGATTATACTTTTGGAATATTATTAAATATGT [XGTACX_negctrl_site75]	6.19
TTTTTTTCTTTTCAAACACACAATTGGTATATATTA [CACACA_site3320]	6.88
TCATCCGTTTTAAGAAGTACATATTTGAACATATAA [XGTACX_site8040]	6.29
ACATGTCAAACATTTGCACACAAAAAAATAAAAATT [CACACA_site691]	10.2
TTAATACATTAAATATGTACTTATATATCTCAACTA [XGTACX_site3997]	6.23
ACCTGAAGAGTCAAACGTACAAATATTATAAAATGA [XGTACX_site3188]	6.32
GTTATATTTTTTTTTTGTACATAATATTGTATTGAC [XGTACX_site6338]	6.95
ATTAAAAACGGGTGTACACATATATAAATATATATA [CACACA_site4539]	6.71
AGTAGCATATTCTATTGTACATATATATATATATAT [XGTACX_site2980]	9.39
TGTATAAAGATATATACACACATATTTATTTATATA [CACACA_site6493]	6.54
TACAAAATAACTAGCACACATATGTATAAACCTATA [CACACA_site3718]	6.59
ATATGTATATATGTATGTACGTACAAATTGTTGTAA [XGTACX_site8832]	7.03
GATGATTATATATATACGCACACTTTTTTTTTTTTT [CACACA_site2652]	7.22
TATAAATACAGATACACACACACACCGATATATATA [CACACA_site5271]	6.95
AATATATAAATCTATTGTACATAAAGAGGATAATAA [XGTACX_site1022]	6.54
TATATATATTTTTATGCACACACAAAGAAAATTTTC [CACACA_site8931]	10.1
AATACAGATAATACAACACACAAGTAATATAAACCT [CACACA_site5900]	6.76
TACTTACTTACTTACTCACACACATATACAAAGAAA [CACACA_site3348]	7.13
AAAAAAAAAAAAAACACACACACAATAGTATATAAA [CACACA_site957]	6.75

Sequence	gcPBM binding intensity (ln)
TTGTTACTGTTTTGGTGTACAAAAAAAAAAAATATA [XGTACX_site5762]	6.44
ATCACAAAATGGAATGTTCTATGATATATATGTATA [XGTACX_negctrl_site460]	6.26
TGTAAATATTTATTCACACATAATCAATTAGAAAAA [CACACA_site5944]	6.41
ATTATGCACCAACACACACACACACTCCTAAAAAAT [CACACA_site8822]	11.7
TCTATACCAGAAAAGGGTACATATTTTGGATTGAAC [XGTACX_site8402]	6.36
AATATAAATAAAAACACACACAATGGTACATATATA [CACACA_site3671]	6.85
TAATAATACCCAAGCACACACACACCCATATATATA [CACACA_site4831]	6.9
ATTGCAAGTTACTTGTGTACTTATAAGATTAAAAGA [XGTACX_site7696]	7.13
TTTAAATCGTTAAAAACACACAAAAAAAATCAATTA [CACACA_site2519]	6.52
TACTGTGATAGCACCACACACGCAAAAGTGGGTATA [CACACA_site4749]	6.59
TATGTAGTTTTAAAGTGTACTTATATATATTAATTG [XGTACX_site378]	6.28
ATAAATATATATATCACACATATATAATTATATATA [CACACA_site4787]	6.57
TTTCTTTTAATAATTAAATATTTATTTATGATTATA [TGCATGCA_negctrl_site30]	6.39
TACATACATATATTATGTACATATTTTATTTTTATT [XGTACX_site1642]	6.65
AAGCATACATCAAGCACACACACACCCACAGAGACA [CACACA_site4362]	6.83
AAAAAAAATTCGTGTGTGCGCATATATAATATATAA	7.73
TTATTTCGAAGAAAATGTACATATATAAATATATAC [XGTACX_site3308]	6.04
ATAATATTTTTTAATTGTACGTTCCATTTTTTTAAA [XGTACX_site1227]	6.7
CAACAATTTCGTCATACACACATTCAGAATATAGAT [CACACA_site7166]	6.63
ATAATAAAAATATATACATGCATTATTATATATATA [TGCATGCA_site799]	7.31
GATAATTACGGACACACACACACACGCACAACTAAA [CACACA_site7254]	7.41
ACTATCATTCATAGGTGTACCTAAATATATATATAT [XGTACX_site1696]	8.78
CGAATATATTCTAGACGTACTATATAATATATATAT [XGTACX_site4953]	8.02

Sequence	gcPBM binding intensity (ln)
TTCTTTTAATTACGAGTGCATACCATATGACATTAT [GTGCAC_site9819]	7.79
AGAAAAGAGAGAAAAACATGCACATGATATTATAAA [TGCATGCA_site120]	7.53
GTGAATATTAAAAAATGTACACAATTATATGTATAT [XGTACX_site4834]	6.4
ATAAACATCTAGTGCTGTACACAATTTGATTTTTTT [XGTACX_site3110]	6.53
CCCTTAAAATATAAATGTACAAAATTATTTGTATGT [XGTACX_site6164]	6.56
GATTATATATACAAAAGTACATTATAAAAATTTCAT [XGTACX_site4223]	6.11
CAAACATGTTCAAATTGTACAATAGAAAATATATAT [XGTACX_site1557]	6.83
TTTTTTTTTTTTTTCTGTACTTAAAAAGGGGGAGAA [XGTACX_site3799]	6.77
TTGAAGTTTGATTGTAGTACGAATTGGTAGTTTTTT [XGTACX_site6854]	6.03
CAAATACATGGACACACACACATATACAGATATATA [CACACA_site5854]	6.75
TGAGTATATATAAATACACACCAAATGTTAATATAT [CACACA_site5022]	6.35
AGGTTAATCGAAATTGCATGTGACGAAAAATCAAAA [TGCATGCA_site666]	6.43
ACGTATGTATATTACACACATACATATTATTCACTA [CACACA_site204]	6.73
TATTTATAACATTGTACACACAAAGAAATAATATTA [CACACA_site7422]	6.43
ACATATATATACTATCGATTAATAAATTTGTTTTTT [CACACA_negctrl_site881]	6.72
ATGATAAACATGGATACACACATATATATTACATAT [CACACA_site1576]	6.86
CATATATAACATATAACACACATACTTAGTATTACA [CACACA_site5674]	6.44
ATAATATTTTATATAGTGCATTTGCTCATTATATAT [GTGCAC_site9528]	9.68
TATCTTATATTTACACGTACGTAGAATTTATAAGTT [XGTACX_site3460]	6.56
TTTTATTAATATTATTTATCTTCTCAAAAGATATAT [XGTACX_negctrl_site202]	6.25
